Experimental data taken from PMC10813319 (Biomedicines, 2024).
Like-named read-outs stand apart in the source and are kept apart here. Square brackets hold non-standard residues; d marks the D form. Peptide text beside a SMILES is read from it.

Test system: Aβd/t-induced cofilactin rods in E16.5 mouse hippocampal neurons (6 DIV)
Test: cells
Conditions: for Inhibition of Aβd/t-induced rod formation at a single concentration: 1 nM peptide, 24 h with Aβd/t, n = 2 (Figure 3A)
Description: Each coated surface was washed three times with phosphate-buffered saline (PBS: 140 mM NaCl, 2.7 mM KCl, 8 mM NaH2PO4, pH 7.2). After incubation of the neurons for 2–3 h (37 °C, 5% CO2), medium was exchanged for serum-free complete hNB. Full changes of medium were performed every 2 days in vitro (DIV 2), and treatments were initiated at either DIV 5 or 6 and maintained for 24 to 48 h.

[1] = 6 DIV mouse hippocampal neurons
[2] = read-out: Rodent Neuron EC50, inhibition of Aβd/t-induced rods, neurons treated 24 h with Aβd/t plus peptide, Table 1

| Molecule | EC50 [2] | other results |
| --- | --- | --- |
| C[C@H](O)[C@@H](N)C(=O)N[C@@H](C(=O)N[C@H](CC(N)=O)C(=O)N[C@H](Cc1ccc(O)cc1)C(=O)N[C@@H](C(=O)O)[C@H](C)O)[C@H](C)O [RAP-103] | 0.0015 nM | Inhibition of Aβd/t-induced rod formation at a single concentration [1]: significant rod-inhibiting activity |
| Maraviroc [reference compound] | – | EC50 (read-out: EC50 for inhibition of Aβd/t-induced rods, mouse neurons, 6 DIV mouse hippocampal neurons, <1 nM to 100 nM, approximate, estimated from semi-log plots (Figure S2A,B), n = 3): 8 to 9 nM |
| c1cc(CN2CCCNCCNCCCNCC2)ccc1CN1CCCNCCNCCCNCC1 [AMD3100, reference compound] | – | EC50 (Mus musculus, Hippocampal neuron, read-out: EC50 for inhibition of Aβd/t-induced rods, mouse neurons): 2 to 3 nM |
| CN[C@@H](C(=O)N[C@@H](C(=O)N[C@H](CC(N)=O)C(=O)N[C@H](Cc1ccc(O)cc1)C(=O)N[C@@H](C(=O)O)[C@H](C)O)[C@H](C)O)[C@H](C)O [Peptide 6] | > 5 nM | – |
| C[C@H](O)[C@@H](NC(=O)[C@@H](Cc1ccc(O)cc1)NC(=O)[C@@H](CC(N)=O)NC(=O)[C@H](NC(=O)[C@H](N)CO)[C@H](C)O)C(=O)O [Peptide 3] (H-[dS][dT][dN][dY][dT]-OH) | ~1.5 nM | – |
| C[C@H](O)[C@@H](NC(=O)[C@@H](Cc1ccc(O)cc1)NC(=O)[C@@H](CC(N)=O)NC(=O)[C@H](NC(=O)[C@H](NC(=O)[C@H](NC(=O)[C@@H](CO)NC(=O)[C@@H](C)N)[C@H](C)O)[C@H](C)O)[C@H](C)O)C(N)=O [RAP-310] | – | Inhibition of Aβd/t-induced rod formation at a single concentration [1]: significant rod-inhibiting activity |
| C[C@H](O)[C@@H](NC(=O)[C@@H](CO)NC(=O)[C@H](N)CO)C(=O)N[C@H](Cc1ccc(O)cc1)C(=O)N[C@H](CCCNC(=N)N)C(=O)O [Peptide 2] | ~1 nM | – |
